B1: LINE1-mini (parent)
chain: GGCAGAGCUCAACACAGCGUGGCAAAGUGGCUGUGGCUAGACUGCC

The source gives no read counts; variants with many changes may rest on few reads.

The variants in this series derive from B1. Nature of the series: self-cleavage, relative activity (ratio to wild type); higher = more cleavage; in vitro, sequencing; the parent is a self-cleaving ribozyme.
On to G7U A11G C15U G19U C37U, for which the self-cleavage was 0.03.
For the variant G7C G21U G40C C42U, the self-cleavage is 0.06.
With G7U A26G G40A, the self-cleavage is 0.08.
Consider G7U U9G C13U, for which the self-cleavage turned out to be 0.2.
The same measure for G7C C23A C31U: 0.05.
As to G7U A11C G29C, the self-cleavage was 0.01.
As for C8A A16C G22U, the self-cleavage was 0.07.
The same measure for G7U A11C G17C U28A G30A: 0.01.
Take C8A A16C G21C: the self-cleavage is 0.06.
With G7U C13G G17U C18A C23A G33U G44C, the self-cleavage is 0.02.
As to G7U U32G U34C, the self-cleavage was 0.33.
As for C8A A11G C42G, the self-cleavage was 0.03.
On to G7U C18U A39C, for which the self-cleavage worked out at 0.42.
The value for G7U A11U U20A G33A G35C was 0.03.
For C8A A14U G40U, the self-cleavage was 0.08.
On to G7U A11C C18A G22C C42U, for which the self-cleavage worked out at 0.
As to G7C G17A G33A, the self-cleavage was determined as 0.02.
Turning to G7C C45U C46U, the self-cleavage was 0.05.
For the variant G7C U9G C45U, the self-cleavage was 0.06.
As to G7U C18G A25C U28G C37G U43C, the self-cleavage stood at 0.
The same measure for G7U C8U A12G G33C: 0.09; for G7U C8A G29U G33A C37G: 0.13.
Take G7C G27C U38G: the self-cleavage was determined as 0.01.
For the variant G7U A24C U32G C37A, the self-cleavage turned out to be 0.03.
For G7U A11C A24C A26G G27C G40C C45A, the self-cleavage was determined as 0.
Turning to G7U U9A A11C C46G, the self-cleavage worked out at 0.04.
For the variant C8A A14C G44C, the self-cleavage amounted to 0.03.
C8A A16U A24G U32G G40U: the self-cleavage worked out at 0.01.
G7U C10G G29A: the self-cleavage worked out at 0.03.
Turning to G7U G29U U34A, the self-cleavage is 0.35.
Take C8A A14G C42U: the self-cleavage came out at 0.27.
The value for G7U C8U C13A G22A A24C G36C was 0.04; that for G7U C8U C37G was 0.05.
Regarding G7U A24U C42A, the self-cleavage is 0.02.
For the variant G7U A26G G33C A41U, the self-cleavage stood at 0.13.
The same measure for G7U U28G U32C: 0.06; for G7U A25C G30A C37A: 0.06.
The same measure for G7C C15A A25C U34C A41C: 0.01; for C8A A16C A41G C42U: 0.31.
Consider G7U G17A G33U, for which the self-cleavage amounted to 0.68.
The same measure for G7U U9G G19A A41G: 0.01; for G7C G17U G36C C42G: 0.17.
As to G7C U32G G40U, the self-cleavage was 0.06.
As to G7C G17A U28G, the self-cleavage stood at 0.05.
In the case of G7U C13U C46U, the self-cleavage amounted to 0.03.
Turning to G7U G27C C31G, the self-cleavage came out at 0.03.
Regarding G7C G27C G36A U43A C46G, the self-cleavage was found to be 0.02.
C8A A14C A16U: the self-cleavage was 0.18.
Take G7U A26U U28A G30A: the self-cleavage was 0.13.
For the variant G7U U9G A12U A24U G29A, the self-cleavage came out at 0.04.
As for G7U U34A U43A, the self-cleavage was 0.02.
Turning to G7C C8U G17U, the self-cleavage was determined as 0.19.
For the variant G7U U9G G21A U28A, the self-cleavage is 0.01.
The same measure for G7U A24C A41U: 0.22; for G7U G21C A26U U38G A39G: 0.
Turning to G7U C15U U28A C37U G44U, the self-cleavage was 0.08.
The same measure for G7C G30U G33A: 0.18; for C8A A16U C31U G35A C45U: 0.1.
With G7C U20A G35A, the self-cleavage was determined as 0.07.
For C8A A12G C18U, the self-cleavage amounted to 0.01.
The value for C8A A12G U20A A24U G27U was 0.03; that for G7U A12C C13G G22A A26G was 0.1; that for G7U U32G C45G was 0.13.
For G7C U9C A11U, the self-cleavage was determined as 0.03.
Regarding G7U C18A G40U, the self-cleavage turned out to be 0.03.
As for C8A A11U A12U A41U, the self-cleavage turned out to be 0.03.
Regarding G7C C23U U34C, the self-cleavage worked out at 0.01.
The same measure for G7C C23A C46U: 0.08; for G7U G44C C46A: 0.21.
Turning to G7U C8A G27A U32G, the self-cleavage is 0.21.
As to G7C C10G G21C C23A, the self-cleavage turned out to be 0.02.
Turning to G7U U9G A25U G40C, the self-cleavage worked out at 0.02.
On to G7C C18U G21A U32G G33A G36A, for which the self-cleavage worked out at 0.06.
Consider G7C U9C C15U A41C, for which the self-cleavage came to 0.02.
For G7C G17A A39U, the self-cleavage came to 0.1.
Take G7C G19U U20A G21U C45A: the self-cleavage is 0.02.
With C8A A12C C15A C18U, the self-cleavage turned out to be 0.03.
With G7U C8G A16G G35C C45U, the self-cleavage was 0.08.
Regarding G7C C18A G40U, the self-cleavage turned out to be 0.05.
The same measure for G7C G27C C37A: 0.02.
The same measure for G7U A14C G21U G36C: 0; for G7U G22U A26U: 0.2.
The same measure for G7C U9A C15U: 0.04.
Consider G7C C10G G19U G29U C31G U43A, for which the self-cleavage came out at 0.02.
With G7C C8U A24G C37A C42G, the self-cleavage was 0.03.
Turning to G7C C15G G27U, the self-cleavage is 0.02.
For the variant G7U C10G G30A, the self-cleavage was determined as 0.01.
The value for G7U C8G U9A G30U C31U was 0.18; that for G7C G17A G21U G40C was 0.01; that for G7C C10A C15G A41U was 0.01.
Turning to G7C G35A G44C, the self-cleavage is 0.29.
Take G7C C15U G36U U43C: the self-cleavage came to 0.
On to C8A A12U G29U A41C, for which the self-cleavage amounted to 0.56.
As to G7C C13U C23G C37A, the self-cleavage was found to be 0.11.
The same measure for G7U G22U C23A G35U: 0.06.
With C8A A12U A39U, the self-cleavage amounted to 0.37.
Consider G7C C18U C42U C46U, for which the self-cleavage was 0.13.
On to C8A A14G G17C G44C, for which the self-cleavage amounted to 0.02.
The value for G7C C18A U28G was 0.01.
For the variant G7U C8A C18G U34A, the self-cleavage turned out to be 0.11.
As for G7U A26C G35A G36C G44U, the self-cleavage amounted to 0.06.
The same measure for G7U G27A G33C G40U: 0.01; for G7C C15A G22U U32A: 0.12; for G7U C8U C31G U34C: 0.11.
G7U A39C G40U: the self-cleavage worked out at 0.32.
The same measure for G7U U28A G36C C42G: 0.03; for G7U U28G G30U A39U: 0.29; for G7U C23A G27A C37A: 0.01.
The same measure for G7C U20A G33A U38A C42A: 0.06.
Take G7U U9A C15A U32C: the self-cleavage amounted to 0.69.
With C8A A14G C18U C42G, the self-cleavage was 0.
G7U A12G G22A C31G U32C: the self-cleavage was 0.03.
For G7U C10A A11U A25C, the self-cleavage stood at 0.01.
With G7U A11U C13G C31G, the self-cleavage came to 0.02.
Regarding G7U A14U A16G G21C C23U U28C C45U, the self-cleavage stood at 0.08.
With G7U C13A G27U, the self-cleavage is 0.08.
The same measure for G7U U9G A25U: 0.1.
As to G7U A11C C18U U28A, the self-cleavage was determined as 0.02.
For the variant G7U A24C C31G C46U, the self-cleavage was 0.1.
On to G7U C8A A24G, for which the self-cleavage amounted to 0.35.
As to G7U C15A G21U G35U C37A, the self-cleavage was found to be 0.02.
Turning to G7U C8U U9A A11C U20G A26U C31U, the self-cleavage came to 0.01.
In the case of G7C G17C U20C A26U, the self-cleavage is 0.08.
For G7C G17A A26G G40A G44U, the self-cleavage stood at 0.05.
As to C8A A14C A26G C31U, the self-cleavage amounted to 0.04.
G7U A24C C45G: the self-cleavage was 0.13.
As for G7C G27A G30A, the self-cleavage was determined as 0.06.
As for G7U A26U G29C G30U, the self-cleavage is 0.05.
As to G7C U9G G19U, the self-cleavage was 0.05.
Turning to G7C U9G G19A, the self-cleavage came to 0.16.
With G7U G17C G35A C37A G44C, the self-cleavage was 0.02.
For the variant G7U C18U G19A G22A, the self-cleavage was found to be 0.04.
As to G7U C8U A16C A26G G40A, the self-cleavage turned out to be 0.05.
For the variant G7C G19C A26U C46A, the self-cleavage was found to be 0.01.
Regarding C8A A11U G19U U32G G40C, the self-cleavage amounted to 0.01.
With G7U C13U G19U G21C G33C C37A, the self-cleavage was found to be 0.3.
On to G7C U9G A16C C31A C45G, for which the self-cleavage is 0.14.
Turning to G7U G29C C46A, the self-cleavage came out at 0.12.
The value for G7U A16G A26G G27C U43C was 0.08.
The same measure for G7U C8A C15A G30U: 0.39; for G7U C8A U20C G21A U32G: 0.07.
Consider G7C G17U A25U G40A C45U, for which the self-cleavage worked out at 0.09.
Turning to C8A A11C G29A G44U, the self-cleavage turned out to be 0.02.
Regarding G7U C10A A25G G30U C31U, the self-cleavage came out at 0.02.
For the variant G7U A26G G29A U38A C46U, the self-cleavage stood at 0.
Take C8A A16G U20C U43A: the self-cleavage was found to be 0.11.
Take C8A A25G G29C: the self-cleavage is 0.04.
The same measure for G7U G19C C37A G40U: 0.01; for G7U A24U A25G: 0.07; for C8A A11G A26C: 0.01.
The value for G7C C10U U38G was 0.01; that for C8A A25C A26U G33A C46A was 0.17.
G7C C18A G19A G22A A41C: the self-cleavage was 0.02.
The value for G7U A24C U34G was 0.12; that for G7U C13G U20A G30U U32A G36U was 0.03.
Consider G7C G21C C31U, for which the self-cleavage is 0.03.
Take G7U C10A C15U A39C: the self-cleavage turned out to be 0.15.
With G7U G30C G36C, the self-cleavage is 0.03.
The same measure for G7U U20G G21C C23G G33A C46A: 0.01; for G7C G21U U28C: 0.03; for G7C G21U U28G: 0.09.
Take G7U C10A G27A: the self-cleavage is 0.
The value for G7U G30A G36A was 0.06.
As to G7C C23A G30U A39C, the self-cleavage is 0.37.
For the variant G7C G22A C42G C45A, the self-cleavage came to 0.04.
Regarding G7C G17C G19C G44A, the self-cleavage turned out to be 0.17.
Regarding G7C G30A C42A G44U, the self-cleavage is 0.1.
